# Test results as given in article PMC4336329 (PLoS ONE, 2015).
# Out of some 310,000 compounds screened, about 2,200 (0.71%) showed an effect of 50% or more. Effects have a minus sign here. The list shows a part of the results.
# Target: human ether-à-go-go-related gene (hERG) potassium channel (human, UniProt Q12809)
# Experiment: primary screen, population patch clamp on CHO cells stably expressing hERG
# human ether-à-go-go-related gene (hERG) potassium channel, sequence (Q12809 whole entry, looked up): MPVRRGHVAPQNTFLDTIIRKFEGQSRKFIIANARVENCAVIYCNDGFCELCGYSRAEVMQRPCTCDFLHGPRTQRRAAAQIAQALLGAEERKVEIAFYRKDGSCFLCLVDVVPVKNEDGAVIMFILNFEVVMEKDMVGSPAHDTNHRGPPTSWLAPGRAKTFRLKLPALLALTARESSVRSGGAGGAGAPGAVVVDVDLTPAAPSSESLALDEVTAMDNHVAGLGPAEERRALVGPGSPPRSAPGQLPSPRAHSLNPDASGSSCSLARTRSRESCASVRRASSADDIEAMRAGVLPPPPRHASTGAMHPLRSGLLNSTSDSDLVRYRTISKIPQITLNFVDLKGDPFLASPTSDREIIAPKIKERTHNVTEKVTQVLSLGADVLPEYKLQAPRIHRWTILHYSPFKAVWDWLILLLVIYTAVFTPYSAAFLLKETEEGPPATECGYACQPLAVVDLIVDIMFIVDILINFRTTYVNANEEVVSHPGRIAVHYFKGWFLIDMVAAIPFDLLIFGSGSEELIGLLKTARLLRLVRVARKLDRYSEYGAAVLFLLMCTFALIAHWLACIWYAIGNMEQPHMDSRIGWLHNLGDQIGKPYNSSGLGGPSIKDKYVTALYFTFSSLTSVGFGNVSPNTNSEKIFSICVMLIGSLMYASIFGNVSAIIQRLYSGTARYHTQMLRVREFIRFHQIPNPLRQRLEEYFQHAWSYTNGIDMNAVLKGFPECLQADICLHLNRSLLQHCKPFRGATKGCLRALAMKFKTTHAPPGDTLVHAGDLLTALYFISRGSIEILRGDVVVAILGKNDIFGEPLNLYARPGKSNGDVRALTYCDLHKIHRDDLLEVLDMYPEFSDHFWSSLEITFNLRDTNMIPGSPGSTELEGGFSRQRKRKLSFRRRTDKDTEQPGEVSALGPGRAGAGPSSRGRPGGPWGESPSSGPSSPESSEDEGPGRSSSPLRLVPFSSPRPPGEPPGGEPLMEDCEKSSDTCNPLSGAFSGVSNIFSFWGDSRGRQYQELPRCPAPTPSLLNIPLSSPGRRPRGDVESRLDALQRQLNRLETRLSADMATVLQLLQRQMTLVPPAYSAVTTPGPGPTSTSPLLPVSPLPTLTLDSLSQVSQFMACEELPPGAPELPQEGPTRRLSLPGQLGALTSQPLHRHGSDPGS
row,Compound,"hERG current change (%, negative = inhibition) at 1uM [%]"
1,Cc1ccc(N(CC(=O)NC2CCCCC2)C(=O)Cn2nnc(-c3ccc(C)o3)n2)cc1,4.94
2,CCN(CC)c1ccc(/C=C2\C(=O)NC(=S)N(C)C2=O)o1,7.14
3,COc1ccc2c(C(=O)CN3CCC(C)CC3)c[nH]c2c1,-3.09
4,CC(C)OCCCn1c(=NC(=O)c2ccncc2)c(C#N)cc2c(=O)n3ccccc3nc21,-63.4
5,O=C(Cn1c(=O)c2cccn2c2ccccc21)NCCc1ccc(Cl)cc1,7.16
6,CCOc1cc(/C=N/NC(=O)Cn2nc([N+](=O)[O-])cc2C)ccc1OCc1ccc(F)cc1,8.07
7,CCOC(=O)c1c(NC(=O)CSc2nnc(-c3cccnc3)o2)sc(C)c1C,10.8
8,COC(=O)c1cn(NC(=O)c2cccc(F)c2)c(=O)c2ccccc12,27.7
9,CCN(c1ccccc1)S(=O)(=O)c1ccc(OC)c(NC(=O)c2cccs2)c1,11.2
10,CCc1ccc(NS(=O)(=O)c2ccc3[nH]cc(C(=O)N4CCc5ccccc54)c(=O)c3c2)cc1,9.43
11,C=CCn1c(SCc2c(F)c(F)c(F)c(F)c2F)nc(O)cc1=O,7.44
12,CC(=O)O[C@@H]1[C@H]2CC[C@@H]3[C@]1(C[C@@H](OC(C)=O)[C@@]1(O)C([C@@H]4O[C@@H]4C1(C)C)[C@]3(C)O)C[C@@]2(C)O (stereo partly drawn),5.75
13,Oc1ccc(-c2nc3ccc4ccccc4c3c3c2CCC3)cc1O,-0.0932
14,COC(=O)c1cccc(NC(=O)N2C[C@H]3C[C@@H](C2)c2cccc(=O)n2C3)c1,4.46
15,CC12CC3(C)CC(C)(C1)CC(C(=O)NCC(=O)O)(C2)C3,19.5
16,Cc1ccc(S(=O)(=O)N2CCN(CCC#N)CC2)cc1,12.5
17,CCN(CC)c1ccc(-n2c(O)c(C=C3N=c4ccccc4=N3)sc2=S)cc1,3.15
18,Cc1nn(-c2ccc(F)cc2)c(Cl)c1C(=O)NCC1CCCO1 (stereo not drawn),6.89
19,COc1ccc(/C(C)=N/NC(=S)NCCc2ccccc2)cc1,12
20,Cc1cc(=O)oc(C)c1C(=O)NCc1ccco1,10.4
21,COC(=O)c1ccc(-c2ccc(CNCC(O)c3ccccc3)o2)cc1.Cl (stereo not drawn),1.92
22,CCc1ccc(NC(=O)CSc2nnc(SCC(=O)Nc3ccc(CC)cc3)n2N)cc1,-0.068
23,CCCCC1=CC2=CC(=O)C(C)(O)C(=O)C2=CO1 (stereo not drawn),19
24,Fc1cc2ncn(Cc3ccccc3)c2cc1F,7.02
25,Cc1cc(C)cc(OCC(=O)OCC(=O)NC2CCCCCCC2)c1,-9.86
26,COc1ccc(CNC(=O)c2c[nH]c3c(OC)cc(OC)cc3c2=O)cc1,14.3
27,COc1ccccc1CC(NC(C)=O)C(=O)NC1CCN(C(=O)c2cccc(Cl)c2)CC1 (stereo not drawn),10.5

row,Compound,"hERG current change (%, negative = inhibition) at 1uM [%]"
1,O=C(N/N=C/c1ccc(O)cc1)c1csc2ccccc12,-20.1
2,COc1ccc(/C=N/NC(=S)NC2CCS(=O)(=O)C2)cc1OC (stereo not drawn),4.93
3,CC(=O)NC(CCS(C)(=O)=O)C(=O)Nc1cccc(C(C)=O)c1 (stereo not drawn),11.7
4,Cc1cc(C)n2cc(CSc3ccc(Br)cc3)nc2n1,-36.9
5,C/C(Cc1ccccc1)=N\NC(=O)CNC(=O)c1cccc(F)c1,13.3
6,CCOC(=O)/C(=N\Nc1ccccc1Cl)N1CCN(c2ccccc2OC)CC1,18.3
7,O=C(Cc1ccc(Br)cc1)Nc1ccc(S(=O)(=O)NCC2CCCO2)cc1 (stereo not drawn),7.2
8,CCN(CC(=O)Nc1ccc2c(c1)OCCO2)C(=O)C(C)Oc1ccc(Cl)cc1 (stereo not drawn),8.21
9,COc1ccccc1Cn1nnc2c(=O)[nH]c(C3CCN(C(=O)c4ccccc4Cl)CC3)nc21,11.6
10,Cn1c(=O)c2c(nc(SCC(=O)NC34CC5CC(CC(C5)C3)C4)n2C)n(C)c1=O,-2.24
11,COc1cccc(N=Nc2ccc3cccnc3c2O)c1,-1.19
12,N#Cc1cccc(S(=O)(=O)NCC(=O)NCCCc2ccccc2)c1,9.15
13,Cc1ccc(C(=O)CN2CCC(NC(=O)C3CCCCC3)CC2)cc1,-7.65
14,CC1=CC(C)(C)N(C)C(=O)N1c1ccc(Cl)cc1,9.35
15,C=CCNC(=S)N1CCN(S(=O)(=O)c2ccc(C)cc2)CC1,-1.66
16,COCCN(C(=O)CN1CCc2ccccc21)c1c(N)n(Cc2ccccc2)c(=O)[nH]c1=O,6.55
17,CN1CCN(C(=O)/C(=C/c2cn(S(=O)(=O)N(C)C)c3ccccc23)NC(=O)c2ccccc2)CC1,4.83
18,CCOc1ccc2c(c1)C(N(CCN1CCOCC1)C(=S)Nc1ccccc1OC)CC(C)(C)O2 (stereo not drawn),-2.61
19,Cc1cccc(NC2=C/C(=N/S(=O)(=O)c3cccs3)c3ccccc3C2=O)c1,14
20,COc1ccc(CC(=O)NC2CCN(Cc3nnnn3C(C)(C)C)CC2)cc1OC,20
21,COCCOc1cc(-n2cccc2)c(Cl)cc1Cl,4.8
22,N#Cc1c(/N=C/c2ccc(-c3ccc(C(=O)O)c(Cl)c3)o2)sc2c1CCCC2,5.55
23,NC(=O)c1cc([N+](=O)[O-])ccc1NCc1cccc([N+](=O)[O-])c1,-3.78
24,c1csc(CN2CCN(Cc3cccs3)C2c2cccs2)c1,4.62
25,CC1CC1c1ccc(/C=C(\C#N)C(=O)Nc2ccc(Cl)cc2)o1 (stereo not drawn),16
26,COc1cc2c(cc1OC)CN(Cc1cc(=O)n3c(-c4ccccc4)csc3n1)CC2,14.9
27,C/C(=N\Nc1cccc2cccnc12)c1ccc(C)cc1,5.99
